# Results: the supplement of paper PMC8728848
# Some of the results follow.
# B1: rAAL-H59Q (Agrocybe aegerita), Q6WY08 (protein)
# chain: MQGVNIYNISAGTSVDLAAPVTTGDIVTFFSSALNLNAGAGNPNNTTLNLFAENGAYLLQIAFRLQENVIIFNSRQPDGPWLVEQRVSDVANQFAGIDGKAMVTVFDHGDKYQVVINEKTVIQYTKQISGLTLSLSYNATEETSIFSTVVEAVTYTGLALEHHHHHH
# Assays:
# Test in all cases: glycan array binding signal (z-score within array); higher = stronger binding
# Settings in all cases: glycan notation: IUPAC condensed, linker removed; mutation: H59Q
# [1] = molecular target: Neu5Ac(a2-3)Gal(b1-3)GlcNAc(b1-6)GalNAc
# Procedure, shortened: (§1)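 Negative Z-scores can be read as non-binding. The Z-score is calculated within each array and then averaged across arrays of one protein sequence at different concentrations or buffers and across linkers. Arrays, 3228 in all, were curated from the Consortium for Functional Glycomics database and kept only where the protein sequence was available.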
# [2] = molecular target: Neu5Ac(a2-3)Gal(b1-3)GlcNAc6S
# Procedure, shortened: as §1
# [3] = molecular target: Neu5Ac(a2-3)Gal(b1-3)[Fuc(a1-4)]GlcNAc
# Procedure, shortened: as §1
# [4] = molecular target: Neu5Ac(a2-3)Gal(b1-3)[Fuc(a1-4)]GlcNAc(b1-3)Gal(b1-3)[Fuc(a1-4)]GlcNAc
# Procedure, shortened: as §1
# [5] = molecular target: Neu5Ac(a2-3)Gal(b1-3)[Fuc(a1-4)]GlcNAc(b1-3)Gal(b1-4)[Fuc(a1-3)]GlcNAc
# Procedure, shortened: as §1
# [6] = molecular target: Neu5Ac(a2-3)Gal(b1-3)[GlcNAc(b1-6)]GalNAc
# Procedure, shortened: as §1
# [7] = molecular target: Neu5Ac(a2-3)Gal(b1-3)[Neu5Ac(a2-6)]GalNAc
# Procedure, shortened: as §1
# [8] = molecular target: Neu5Ac(a2-3)Gal(b1-3)[Neu5Ac(a2-6)]GlcNAc(b1-3)[Fuc(a1-3)[Gal(b1-4)]GlcNAc(b1-6)]Gal(b1-4)Glc
# Procedure, shortened: as §1
# [9] = molecular target: Neu5Ac(a2-3)Gal(b1-3)]Neu5Ac(a2-3)Gal(b1-4)]GlcNAc
# Procedure, shortened: as §1
# Neu5Ac(a2-3)Gal(b1-4)Glc = molecular target: Neu5Ac(a2-3)Gal(b1-4)Glc
# Procedure, shortened: as §1
# [10] = molecular target: Neu5Ac(a2-3)Gal(b1-4)GlcNAc
# Procedure, shortened: as §1
# [11] = molecular target: Neu5Ac(a2-3)Gal(b1-4)GlcNAc(b1-2)Man
# Procedure, shortened: as §1
# [12] = molecular target: Neu5Ac(a2-3)Gal(b1-4)GlcNAc(b1-2)Man(a1-3)[GlcNAc(b1-4)][Neu5Ac(a2-3)Gal(b1-4)GlcNAc(b1-2)Man(a1-6)]Man(b1-4)GlcNAc(b1-4)GlcNAc
# Procedure, shortened: as §1
# [13] = molecular target: Neu5Ac(a2-3)Gal(b1-4)GlcNAc(b1-2)Man(a1-3)[Neu5Ac(a2-3)Gal(b1-4)GlcNAc(b1-2)Man(a1-6)]Man(b1-4)GlcNAc(b1-4)GlcNAc
# Procedure, shortened: as §1
# [14] = molecular target: Neu5Ac(a2-3)Gal(b1-4)GlcNAc(b1-2)Man(a1-3)[Neu5Ac(a2-3)Gal(b1-4)GlcNAc(b1-2)Man(a1-6)]Man(b1-4)GlcNAc(b1-4)[Fuc(a1-6)]GlcNAc
# Procedure, shortened: as §1
# [15] = molecular target: Neu5Ac(a2-3)Gal(b1-4)GlcNAc(b1-2)Man(a1-3)[Neu5Ac(a2-6)Gal(b1-4)GlcNAc(b1-2)Man(a1-6)]Man(b1-4)GlcNAc(b1-4)GlcNAc
# Procedure, shortened: as §1
# [16] = molecular target: Neu5Ac(a2-3)Gal(b1-4)GlcNAc(b1-2)[Neu5Ac(a2-3)Gal(b1-4)GlcNAc(b1-4)]Man(a1-3)[GlcNAc(b1-4)][Neu5Ac(a2-3)Gal(b1-4)GlcNAc(b1-2)[Neu5Ac(a2-3)Gal(b1-4)GlcNAc(b1-6)]Man(a1-6)]Man(b1-4)GlcNAc(b1-4)GlcNAc
# Procedure, shortened: as §1
# [17] = molecular target: Neu5Ac(a2-3)Gal(b1-4)GlcNAc(b1-2)[Neu5Ac(a2-3)Gal(b1-4)GlcNAc(b1-4)]Man(a1-3)[GlcNAc(b1-4)][Neu5Ac(a2-3)Gal(b1-4)GlcNAc(b1-4)Man(a1-6)]Man(b1-4)GlcNAc(b1-4)GlcNAc
# Procedure, shortened: as §1
# [18] = molecular target: Neu5Ac(a2-3)Gal(b1-4)GlcNAc(b1-2)[Neu5Ac(a2-3)Gal(b1-4)GlcNAc(b1-6)]Man(a1-6)[Neu5Ac(a2-3)Gal(b1-4)GlcNAc(b1-2)Man(a1-3)][GlcNAc(b1-4)]Man(b1-4)GlcNAc(b1-4)GlcNAc
# Procedure, shortened: as §1
# [19] = molecular target: Neu5Ac(a2-3)Gal(b1-4)GlcNAc(b1-3)Gal
# Procedure, shortened: as §1
# [20] = molecular target: Neu5Ac(a2-3)Gal(b1-4)GlcNAc(b1-3)Gal(b1-3)GlcNAc
# Procedure, shortened: as §1
# [21] = molecular target: Neu5Ac(a2-3)Gal(b1-4)GlcNAc(b1-3)Gal(b1-4)GlcNAc
# Procedure, shortened: as §1
# [22] = molecular target: Neu5Ac(a2-3)Gal(b1-4)GlcNAc(b1-3)Gal(b1-4)GlcNAc(b1-2)Man(a1-3)[Neu5Ac(a2-3)Gal(b1-4)GlcNAc(b1-3)Gal(b1-4)GlcNAc(b1-2)Man(a1-6)]Man(b1-4)GlcNAc(b1-4)GlcNAc
# Procedure, shortened: as §1
# [23] = molecular target: Neu5Ac(a2-3)Gal(b1-4)GlcNAc(b1-3)Gal(b1-4)GlcNAc(b1-3)Gal(b1-4)GlcNAc
# Procedure, shortened: as §1
# [24] = molecular target: Neu5Ac(a2-3)Gal(b1-4)GlcNAc(b1-3)Gal(b1-4)GlcNAc(b1-3)Gal(b1-4)GlcNAc(b1-2)Man(a1-3)[Neu5Ac(a2-3)Gal(b1-4)GlcNAc(b1-3)Gal(b1-4)GlcNAc(b1-3)Gal(b1-4)GlcNAc(b1-2)Man(a1-6)]GalNAc
# Procedure, shortened: as §1
# [25] = molecular target: Neu5Ac(a2-3)Gal(b1-4)GlcNAc(b1-3)Gal(b1-4)GlcNAc(b1-3)GalNAc
# Procedure, shortened: as §1
# [26] = molecular target: Neu5Ac(a2-3)Gal(b1-4)GlcNAc(b1-3)Gal(b1-4)GlcNAc(b1-3)[Neu5Ac(a2-3)Gal(b1-4)GlcNAc(b1-3)Gal(b1-4)GlcNAc(b1-6)]GalNAc
# Procedure, shortened: as §1
# [27] = molecular target: Neu5Ac(a2-3)Gal(b1-4)GlcNAc(b1-3)Gal(b1-4)GlcNAc(b1-6)[Gal(b1-3)]GalNAc
# Procedure, shortened: as §1
# [28] = molecular target: Neu5Ac(a2-3)Gal(b1-4)GlcNAc(b1-3)Gal(b1-4)[Fuc(a1-3)]GlcNAc
# Procedure, shortened: as §1
# [29] = molecular target: Neu5Ac(a2-3)Gal(b1-4)GlcNAc(b1-3)GalNAc
# Procedure, shortened: as §1
# [30] = molecular target: Neu5Ac(a2-3)Gal(b1-4)GlcNAc(b1-3)[Neu5Ac(a2-3)Gal(b1-4)GlcNAc(b1-6)]GalNAc
# Procedure, shortened: as §1
# [31] = molecular target: Neu5Ac(a2-3)Gal(b1-4)GlcNAc(b1-6)GalNAc
# Procedure, shortened: as §1
# [32] = molecular target: Neu5Ac(a2-3)Gal(b1-4)GlcNAc(b1-6)[Gal(b1-3)]GalNAc
# Procedure, shortened: as §1
# [33] = molecular target: Neu5Ac(a2-3)Gal(b1-4)GlcNAc(b1-6)[Neu5Ac(a2-3)Gal(b1-3)]GalNAc
# Procedure, shortened: as §1
# [34] = molecular target: Neu5Ac(a2-3)Gal(b1-4)GlcNAc6S
# Procedure, shortened: as §1
# [35] = molecular target: Neu5Ac(a2-3)Gal(b1-4)[Fuc(a1-3)]GlcNAc
# Procedure, shortened: as §1
# [36] = molecular target: Neu5Ac(a2-3)Gal(b1-4)[Fuc(a1-3)]GlcNAc(b1-2)Man
# Procedure, shortened: as §1
# [37] = molecular target: Neu5Ac(a2-3)Gal(b1-4)[Fuc(a1-3)]GlcNAc(b1-3)Gal
# Procedure, shortened: as §1
# [38] = molecular target: Neu5Ac(a2-3)Gal(b1-4)[Fuc(a1-3)]GlcNAc(b1-3)Gal(b1-4)GlcNAc
# Procedure, shortened: as §1
# [39] = molecular target: Neu5Ac(a2-3)Gal(b1-4)[Fuc(a1-3)]GlcNAc(b1-3)Gal(b1-4)[Fuc(a1-3)]GlcNAc(b1-3)Gal(b1-4)[Fuc(a1-3)]GlcNAc
# Procedure, shortened: as §1
# [40] = molecular target: Neu5Ac(a2-3)Gal(b1-4)[Fuc(a1-3)]GlcNAc(b1-3)GalNAc
# Procedure, shortened: as §1
# [41] = molecular target: Neu5Ac(a2-3)Gal(b1-4)[Fuc(a1-3)]GlcNAc(b1-6)[Gal(b1-3)]GalNAc
# Procedure, shortened: as §1
# [42] = molecular target: Neu5Ac(a2-3)Gal(b1-4)[Fuc(a1-3)]GlcNAc(b1-6)[Neu5Ac(a2-3)Gal(b1-3)]GalNAc
# Procedure, shortened: as §1
# [43] = molecular target: Neu5Ac(a2-3)Gal(b1-4)[Fuc(a1-3)]GlcNAc6S
# Procedure, shortened: as §1
# [44] = molecular target: Neu5Ac(a2-3)Gal6S(b1-4)GlcNAc
# Procedure, shortened: as §1
binder,measurement,setting,value
B1,glycan array binding signal (z-score),[1],-0.045
same,glycan array binding signal (z-score),[2],-0.064
same,glycan array binding signal (z-score),[3],-0.062
same,glycan array binding signal (z-score),[4],-0.069
same,glycan array binding signal (z-score),[5],-0.068
same,glycan array binding signal (z-score),[6],-0.139
same,glycan array binding signal (z-score),[7],-0.121
same,glycan array binding signal (z-score),[8],-0.095
same,glycan array binding signal (z-score),[9],-0.15
same,glycan array binding signal (z-score),Neu5Ac(a2-3)Gal(b1-4)Glc,-0.086
same,glycan array binding signal (z-score),[10],-0.078
same,glycan array binding signal (z-score),[11],-0.03
same,glycan array binding signal (z-score),[12],-0.07
same,glycan array binding signal (z-score),[13],0.113
same,glycan array binding signal (z-score),[14],-0.072
same,glycan array binding signal (z-score),[15],-0.096
same,glycan array binding signal (z-score),[16],-0.13
same,glycan array binding signal (z-score),[17],-0.016
same,glycan array binding signal (z-score),[18],-0.083
same,glycan array binding signal (z-score),[19],-0.132
same,glycan array binding signal (z-score),[20],-0.069
same,glycan array binding signal (z-score),[21],-0.012
same,glycan array binding signal (z-score),[22],-0.086
same,glycan array binding signal (z-score),[23],-0.128
same,glycan array binding signal (z-score),[24],-0.029
same,glycan array binding signal (z-score),[25],-0.14
same,glycan array binding signal (z-score),[26],-0.096
same,glycan array binding signal (z-score),[27],-0.009
same,glycan array binding signal (z-score),[28],-0.092
same,glycan array binding signal (z-score),[29],-0.092
same,glycan array binding signal (z-score),[30],-0.097
same,glycan array binding signal (z-score),[31],-0.11
same,glycan array binding signal (z-score),[32],-0.035
same,glycan array binding signal (z-score),[33],-0.185
same,glycan array binding signal (z-score),[34],-0.086
same,glycan array binding signal (z-score),[35],-0.137
same,glycan array binding signal (z-score),[36],-0.092
same,glycan array binding signal (z-score),[37],-0.051
same,glycan array binding signal (z-score),[38],-0.017
same,glycan array binding signal (z-score),[39],-0.069
same,glycan array binding signal (z-score),[40],0.246
same,glycan array binding signal (z-score),[41],-0.104
same,glycan array binding signal (z-score),[42],0.025
same,glycan array binding signal (z-score),[43],-0.122
same,glycan array binding signal (z-score),[44],-0.123
